The campaign covered roughly 310,000 compounds. About 2,200 (0.71%) showed an effect of 50% or more. Effects have a minus sign here. The list shows a part of the results. Where a SMILES comes first, the peptide text is derived from it. [ ]: non-standard residue; d: D form. The star is where a group is joined. Phe(4-Me) = Cc1ccc(C[CH](N)C(=O)O)cc1; Bz = O=C(c1ccccc1)*
biological target: human ether-à-go-go-related gene (hERG) potassium channel (human, UniProt Q12809); assay: primary screen, population patch clamp on CHO cells stably expressing hERG
Sequence (Q12809 whole entry, looked up): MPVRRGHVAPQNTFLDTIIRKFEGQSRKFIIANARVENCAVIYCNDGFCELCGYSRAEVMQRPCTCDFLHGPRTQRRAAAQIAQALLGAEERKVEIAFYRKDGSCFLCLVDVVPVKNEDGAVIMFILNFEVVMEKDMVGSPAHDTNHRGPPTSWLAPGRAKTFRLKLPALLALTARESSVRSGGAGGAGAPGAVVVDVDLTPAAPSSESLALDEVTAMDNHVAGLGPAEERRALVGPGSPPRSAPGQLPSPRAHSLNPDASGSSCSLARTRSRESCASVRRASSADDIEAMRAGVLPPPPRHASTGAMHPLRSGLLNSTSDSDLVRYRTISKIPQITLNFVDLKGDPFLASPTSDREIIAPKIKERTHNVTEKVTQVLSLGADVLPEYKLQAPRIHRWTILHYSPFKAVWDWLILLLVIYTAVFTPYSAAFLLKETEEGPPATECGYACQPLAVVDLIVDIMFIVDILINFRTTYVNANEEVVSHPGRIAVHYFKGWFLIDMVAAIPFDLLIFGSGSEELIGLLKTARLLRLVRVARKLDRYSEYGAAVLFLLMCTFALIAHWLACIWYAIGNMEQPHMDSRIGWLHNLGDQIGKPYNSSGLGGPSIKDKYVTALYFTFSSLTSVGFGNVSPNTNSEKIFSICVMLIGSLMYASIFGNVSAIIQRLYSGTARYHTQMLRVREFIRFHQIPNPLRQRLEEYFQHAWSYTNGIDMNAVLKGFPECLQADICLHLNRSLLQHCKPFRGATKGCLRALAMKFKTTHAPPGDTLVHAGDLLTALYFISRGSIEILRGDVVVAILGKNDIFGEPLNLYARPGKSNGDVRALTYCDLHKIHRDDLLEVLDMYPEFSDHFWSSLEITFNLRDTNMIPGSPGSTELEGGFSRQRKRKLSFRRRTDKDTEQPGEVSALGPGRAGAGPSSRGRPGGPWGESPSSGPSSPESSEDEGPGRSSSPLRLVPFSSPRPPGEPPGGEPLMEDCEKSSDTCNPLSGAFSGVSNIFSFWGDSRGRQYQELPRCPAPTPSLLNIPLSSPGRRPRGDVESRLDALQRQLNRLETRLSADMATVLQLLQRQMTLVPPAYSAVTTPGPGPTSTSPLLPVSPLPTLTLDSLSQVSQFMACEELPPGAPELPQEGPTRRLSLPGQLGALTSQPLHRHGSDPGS

Compound	hERG current change (%, negative = inhibition) at 1uM
COc1ccc(C2CC(=O)n3c(nc4ccccc43)S2)cc1OC (stereo not drawn)	12.9%
Cc1occc1C(=O)Nc1c(F)c(F)c(F)c(F)c1F	-1.15%
CCCc1[nH]c2ccc(C(=O)OC)cc2c1CCC	13%
CC(C)C(=O)N(c1ccc2oc(=O)sc2c1)S(=O)(=O)c1cccs1	8.03%
CCCn1c(SCC#N)nc2c(c1=O)C1(CCCC1)Cc1ccccc1-2	10.4%
CCOc1c(Cl)cc(CNC(C)C(O)c2ccccc2)cc1OC.Cl (stereo not drawn)	4.13%
Cc1cc(C)c(C)c(OCCCN(C)C)c1.O=C(O)C(=O)O	6.99%
COc1cc2c(-c3ccc4cc[nH]c4c3)c(-c3ccsc3)oc(=O)c2cc1OC	9.06%
COc1ccc(C(NCC(=O)NC(C)c2ccc(Cl)cc2)c2ccccc2)cc1 (stereo not drawn)	12.3%
CCOc1cc(/C=C2/C(=N)N3C(=NC2=O)SN=C3S(=O)(=O)CC)ccc1OC(=O)c1ccco1	11.1%
CCNC(=S)N1CCN(CCN=CC2=C(O)CC(C)(C)CC2=O)CC1	-9.89%
Nn1c(SCC(=O)NC2CCCc3ccccc32)nnc1-c1cccs1 (stereo not drawn)	7.63%
CCOc1ccccc1NC(=O)C1CCCN1C(=O)c1cccs1 (stereo not drawn)	9.01%
Cc1ccc(S(=O)(=O)/N=C2/NC(=O)/C(=C\c3ccco3)S2)cc1	4.02%
N=C1c2ccccc2CN1c1ncccn1	22.5%
CCOc1ccc(C(=O)Nc2ncn[nH]2)cc1	15.7%
COc1cccc(CC2(CO)CCN(Cc3cccn3-c3cccnc3)CC2)c1	-6.04%
Cc1c(C(=O)Nc2ccccc2F)sc2nc3n(c(=O)c12)CCC3	17.2%
N#CCCn1c(C2CCCCC2)nc2ccccc21	2%
CCN(CC)CCN(Cc1cc2cc(C)ccc2[nH]c1=O)C(=S)NCc1ccco1	9.85%
Cc1ccsc1C1C2=C(CCCC2=O)Nc2ncnn21 (stereo not drawn)	11.5%
CCc1ccc2c(CC(=O)Nc3cccc(S(=O)(=O)N4CCOCC4)c3)coc2c1	12.8%
CC(C)c1ccc(NC(=S)N2CCN(S(=O)(=O)c3ccccc3)CC2)cc1	14.7%

Compound	hERG current change (%, negative = inhibition) at 1uM
CCOCCCNC(=S)N1CCCC(c2nc3ccc(C)cc3[nH]2)C1 (stereo not drawn)	4.49%
COc1ccc(Cn2c(=O)c3c(nc(NCCO)n3C)n(C)c2=O)cc1	6.91%
CCOC(=O)C1=C(c2ccccc2)Nc2nc(C)nn2C1c1cccc(OC)c1OC (stereo not drawn)	8.11%
Cc1ccc(CC(NC(=O)c2ccccc2)C(=O)NC(Cc2ccccc2)C(=O)O)cc1 (stereo not drawn) (Bz-[Phe(4-Me)]-Phe-OH; configuration not given here)	6.59%
Cc1ccc(OC(=O)CCC(=O)N2CCc3ccccc32)cc1	6.94%
Cc1c(NS(=O)(=O)c2cc(C(=O)O)ccc2Cl)c(=O)n(-c2ccccc2)n1C	17.2%
Cc1cc(C)nc(SCCC(=O)Nc2cccc3ccccc23)n1	-1.85%
COc1ccccc1NC(=O)Nc1ccc(CC#N)cc1	13.7%
O=C(CCNS(=O)(=O)c1ccccc1)NCCCSc1ccccc1	5.69%
COc1cc([C@H]2[C@@H]3CCCC[C@]3(O)CCN2CC(=O)Nc2ccc(C)cc2)ccc1O	10.7%
CCOc1cccc(OCCOCCN2CCCC2)c1	8.61%
N#Cc1c(-c2ccc(Cl)cc2)c(C#N)c(=O)n(N)c1N	13.9%
CC(=O)c1ccc(S(=O)(=O)N2CCC(NC(=O)c3ccccc3)CC2)cc1	18.6%
O=C(N/N=C/c1cc(Br)c(O)c(Br)c1)c1cc2c(ccc3ccccc32)o1	20.1%
COc1ccccc1NC(=O)CSc1nc2sc3c(c2c(=O)n1-c1ccccc1)CCN(C)C3	10.5%
Cc1ccc(NS(=O)(=O)c2c(C)noc2C)cc1	-13.2%
CCOC(=O)c1cc2sc(C)cc2n1CC(=O)N1CCc2ccccc21	7.63%
COc1ccccc1/C=C1\SC(=S)N(CCC(=O)Nc2nnc(C)s2)C1=O	9.95%
O=C(N=C1SC2CS(=O)(=O)CC2N1c1cccc(Cl)c1)C1CCCO1 (stereo not drawn)	11.9%
O=C1CC(c2cccc(Cl)c2)CC(O)=C1C=NCCCO (stereo not drawn)	15.5%
O=C(CSc1nc2ccccc2n1CC(=O)N1CCCCC1)N1CCCCC1	-15.9%
C=CCn1c(=O)/c(=C/c2cc(OC)c(OC)c(OC)c2)s/c1=C(/C#N)c1nc2ccccc2n1C	5.67%

From paper PMC4336329 (PLoS ONE, 2015)
